How the values were obtained:
Assay in all cases: minimum inhibitory concentration
Ampicillin = compound: CC1(C)S[C@@H]2[C@H](NC(=O)[C@H](N)c3ccccc3)C(=O)N2[C@H]1C(=O)O [Ampicillin]
Experimental: (§1)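 Broth microdilution MIC per ISO 10932 on precoated VetMIC Lact-1 plates (tylosin, vancomycin and ampicillin plates prepared manually) against lactic acid bacteria and bifidobacteria isolates. Plates were read visually after 48 h anaerobic incubation (bifidobacteria 72 h; enterococci and staphylococci 24 h aerobic) at species-specific temperatures of 30 or 37 °C. Values prefixed with < or > are outside the tested dilution range.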

Tetracycline = compound: CN(C)[C@@H]1C(O)=C(C(N)=O)C(=O)[C@@]2(O)C(O)=C3C(=O)c4c(O)cccc4[C@@](C)(O)[C@H]3C[C@@H]12 [Tetracycline]
Experimental: as §1

Kanamycin = compound: NC[C@H]1O[C@H](O[C@H]2[C@H](O)[C@@H](O[C@H]3O[C@H](CO)[C@@H](O)[C@H](N)[C@H]3O)[C@H](N)C[C@@H]2N)[C@H](O)[C@@H](O)[C@@H]1O [Kanamycin]
Experimental: as §1

Clindamycin = compound: CCC[C@@H]1C[C@@H](C(=O)N[C@@H]([C@H]2O[C@H](SC)[C@H](O)[C@@H](O)[C@H]2O)[C@H](C)Cl)N(C)C1 [Clindamycin]
Experimental: as §1

Neomycin = compound: NC[C@@H]1O[C@H](O[C@H]2[C@@H](O)[C@H](O[C@@H]3[C@@H](O)[C@H](N)C[C@H](N)[C@H]3O[C@H]3O[C@H](CN)[C@@H](O)[C@H](O)[C@H]3N)O[C@@H]2CO)[C@H](N)[C@@H](O)[C@@H]1O [Neomycin]
Experimental: as §1

Erythromycin = compound: CC[C@H]1OC(=O)[C@H](C)[C@@H](O[C@H]2C[C@@](C)(OC)[C@@H](O)[C@H](C)O2)[C@H](C)[C@@H](O[C@@H]2O[C@H](C)C[C@H](N(C)C)[C@H]2O)[C@](C)(O)C[C@@H](C)C(=O)[C@H](C)[C@@H](O)[C@]1(C)O [Erythromycin]
Experimental: as §1

Gentamicin = compound: CNC(C)C1CCC(N)C(OC2C(N)CC(N)C(OC3OCC(C)(O)C(NC)C3O)C2O)O1 [Gentamicin]
Experimental: as §1

Streptomycin = compound: CN[C@@H]1[C@H](O[C@H]2[C@H](O[C@H]3[C@H](O)[C@@H](O)[C@H](N=C(N)N)[C@@H](O)[C@@H]3N=C(N)N)O[C@@H](C)[C@]2(O)C=O)O[C@@H](CO)[C@H](O)[C@H]1O [Streptomycin]
Experimental: as §1

Chloramphenicol = compound: O=C(N[C@H](CO)[C@H](O)c1ccc([N+](=O)[O-])cc1)C(Cl)Cl [Chloramphenicol]
Experimental: as §1
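Note: isolates derived from commercial starter, protective, probiotic or feed-additive cultures, from fermented products, from human gut mucosa or feces, and from human milk or colostrum.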

| Test System | minimum inhibitory concentration (Ampicillin) | minimum inhibitory concentration (Tetracycline) | minimum inhibitory concentration (Kanamycin) | minimum inhibitory concentration (Clindamycin) | minimum inhibitory concentration (Neomycin) | minimum inhibitory concentration (Erythromycin) | minimum inhibitory concentration (Gentamicin) | minimum inhibitory concentration (Streptomycin) | minimum inhibitory concentration (Chloramphenicol) |
| --- | --- | --- | --- | --- | --- | --- | --- | --- | --- |
| Lactiplantibacillus plantarum IM1296 (strain group: non-starter strains) | 0.25 µg/mL | 16 µg/mL | 32 µg/mL | 2 µg/mL | 2 µg/mL | 0.25 µg/mL | 4 µg/mL | 16 µg/mL | 8 µg/mL |
| Lactiplantibacillus plantarum IM1331 (strain group: non-starter strains) | 1 µg/mL | 16 µg/mL | 32 µg/mL | 16 µg/mL | 1 µg/mL | 1 µg/mL | 2 µg/mL | 32 µg/mL | 8 µg/mL |
| Lactiplantibacillus plantarum IM1333 (strain group: non-starter strains) | 1 µg/mL | 16 µg/mL | 32 µg/mL | 2 µg/mL | 1 µg/mL | 1 µg/mL | 1 µg/mL | 16 µg/mL | 4 µg/mL |
| Lactiplantibacillus plantarum IM1344 (strain group: non-starter strains) | 0.25 µg/mL | 16 µg/mL | 128 µg/mL | 4 µg/mL | 8 µg/mL | 1 µg/mL | 2 µg/mL | 64 µg/mL | 8 µg/mL |
| Lactiplantibacillus plantarum IM1348 (strain group: non-starter strains) | 0.25 µg/mL | 16 µg/mL | 32 µg/mL | 0.12 µg/mL | 4 µg/mL | 0.5 µg/mL | 2 µg/mL | 16 µg/mL | 4 µg/mL |
| Lactiplantibacillus plantarum IM1350 (strain group: non-starter strains) | 2 µg/mL | 16 µg/mL | 32 µg/mL | 8 µg/mL | 16 µg/mL | 1 µg/mL | 8 µg/mL | 32 µg/mL | 8 µg/mL |
| Lactiplantibacillus plantarum IM1382 (strain group: probiotic strains) | 0.5 µg/mL | 16 µg/mL | 128 µg/mL | 8 µg/mL | 32 µg/mL | 0.5 µg/mL | 16 µg/mL | 128 µg/mL | 8 µg/mL |
| Lactiplantibacillus plantarum IM1394 (strain group: probiotic strains) | 0.5 µg/mL | 32 µg/mL | 128 µg/mL | 16 µg/mL | 8 µg/mL | 0.5 µg/mL | 8 µg/mL | 64 µg/mL | 8 µg/mL |
| Latilactobacillus curvatus IM1002 (strain group: non-starter strains) | 1 µg/mL | 1 µg/mL | 64 µg/mL | 0.12 µg/mL | 8 µg/mL | 0.12 µg/mL | 4 µg/mL | 32 µg/mL | 4 µg/mL |
| Latilactobacillus curvatus IM1007 (strain group: non-starter strains) | 1 µg/mL | 1 µg/mL | 32 µg/mL | 0.12 µg/mL | 2 µg/mL | 0.12 µg/mL | 2 µg/mL | 16 µg/mL | 4 µg/mL |
| Latilactobacillus curvatus IM1134 (strain group: non-starter strains) | 4 µg/mL | 1 µg/mL | 32 µg/mL | 0.5 µg/mL | 4 µg/mL | 0.25 µg/mL | 2 µg/mL | 8 µg/mL | 4 µg/mL |
| Latilactobacillus curvatus IM1363 (strain group: non-starter strains) | 2 µg/mL | 1 µg/mL | 32 µg/mL | 0.12 µg/mL | 8 µg/mL | 0.5 µg/mL | 8 µg/mL | 64 µg/mL | 2 µg/mL |
| Lentilactobacillus kefiri IM1367 (strain group: non-starter strains) | 0.25 µg/mL | 2 µg/mL | 8 µg/mL | 0.06 µg/mL | 4 µg/mL | 0.5 µg/mL | 2 µg/mL | 16 µg/mL | 4 µg/mL |
| Lentilactobacillus parabuchneri IM1149 (strain group: non-starter strains) | 2 µg/mL | 32 µg/mL | 128 µg/mL | 0.25 µg/mL | 4 µg/mL | 0.5 µg/mL | 4 µg/mL | 64 µg/mL | 8 µg/mL |
| Lentilactobacillus parabuchneri IM1357 (strain group: non-starter strains) | 0.5 µg/mL | 32 µg/mL | 4 µg/mL | 0.06 µg/mL | < 0.5 µg/mL | 0.5 µg/mL | < 0.5 µg/mL | 4 µg/mL | 4 µg/mL |
| Leuconostoc citreum IM1322 (strain group: non-starter strains) | 0.5 µg/mL | 2 µg/mL | 32 µg/mL | 0.12 µg/mL | 4 µg/mL | 1 µg/mL | 2 µg/mL | 32 µg/mL | 8 µg/mL |
| Leuconostoc mesenteroides IM1327 (strain group: non-starter strains) | 2 µg/mL | 2 µg/mL | 128 µg/mL | 0.5 µg/mL | 2 µg/mL | 1 µg/mL | 4 µg/mL | 64 µg/mL | 8 µg/mL |
| Leuconostoc mesenteroides IM1345 (strain group: non-starter strains) | 2 µg/mL | 0.5 µg/mL | 64 µg/mL | 0.12 µg/mL | 8 µg/mL | 0.12 µg/mL | 4 µg/mL | 32 µg/mL | 2 µg/mL |

| Test System | minimum inhibitory concentration (Ampicillin) | minimum inhibitory concentration (Tetracycline) | minimum inhibitory concentration (Kanamycin) | minimum inhibitory concentration (Clindamycin) | minimum inhibitory concentration (Neomycin) | minimum inhibitory concentration (Erythromycin) | minimum inhibitory concentration (Gentamicin) | minimum inhibitory concentration (Streptomycin) | minimum inhibitory concentration (Chloramphenicol) |
| --- | --- | --- | --- | --- | --- | --- | --- | --- | --- |
| Leuconostoc mesenteroides IM1359 (strain group: non-starter strains) | 2 µg/mL | 2 µg/mL | 8 µg/mL | 0.12 µg/mL | < 0.5 µg/mL | 0.25 µg/mL | < 0.5 µg/mL | 8 µg/mL | 4 µg/mL |
| Leuconostoc mesenteroides IM1360 (strain group: non-starter strains) | 2 µg/mL | 2 µg/mL | 64 µg/mL | 0.12 µg/mL | 2 µg/mL | 0.25 µg/mL | 2 µg/mL | 64 µg/mL | 8 µg/mL |
| Leuconostoc mesenteroides IM1362 (strain group: non-starter strains) | 1 µg/mL | 2 µg/mL | 8 µg/mL | 0.06 µg/mL | < 0.5 µg/mL | 0.25 µg/mL | < 0.5 µg/mL | 4 µg/mL | 8 µg/mL |
| Leuconostoc mesenteroides IM1373 (strain group: starter cultures) | 1 µg/mL | 4 µg/mL | 16 µg/mL | 0.25 µg/mL | < 0.5 µg/mL | 0.5 µg/mL | < 0.5 µg/mL | 8 µg/mL | 8 µg/mL |
| Leuconostoc mesenteroides IM1378 (strain group: starter cultures) | 1 µg/mL | 2 µg/mL | 4 µg/mL | 0.5 µg/mL | < 0.5 µg/mL | 0.5 µg/mL | < 0.5 µg/mL | 4 µg/mL | 2 µg/mL |
| Levilactobacillus brevis IM1129 (strain group: non-starter strains) | 2 µg/mL | 16 µg/mL | 128 µg/mL | 0.5 µg/mL | 8 µg/mL | 0.5 µg/mL | 4 µg/mL | 64 µg/mL | 8 µg/mL |
| Levilactobacillus brevis IM1146 (strain group: non-starter strains) | 2 µg/mL | 8 µg/mL | 32 µg/mL | 8 µg/mL | 2 µg/mL | 0.25 µg/mL | 1 µg/mL | 16 µg/mL | 4 µg/mL |
| Levilactobacillus brevis IM1335 (strain group: non-starter strains) | 8 µg/mL | 16 µg/mL | 32 µg/mL | 16 µg/mL | 1 µg/mL | 1 µg/mL | 1 µg/mL | 16 µg/mL | 4 µg/mL |
| Limosilactobacillus fermentum IM137 (strain group: human intestinal mucosa or faeces) | 0.5 µg/mL | 4 µg/mL | 64 µg/mL | 0.06 µg/mL | 8 µg/mL | 0.5 µg/mL | 2 µg/mL | 16 µg/mL | 4 µg/mL |
| Limosilactobacillus fermentum IM686 (strain group: human intestinal mucosa or faeces) | 0.5 µg/mL | 8 µg/mL | 128 µg/mL | 0.12 µg/mL | 2 µg/mL | 1 µg/mL | 2 µg/mL | 64 µg/mL | 16 µg/mL |
| Limosilactobacillus fermentum IM688 (strain group: human intestinal mucosa or faeces) | 0.5 µg/mL | 4 µg/mL | 64 µg/mL | 0.06 µg/mL | 2 µg/mL | 0.25 µg/mL | 2 µg/mL | 32 µg/mL | 8 µg/mL |
| Limosilactobacillus fermentum IM689 (strain group: human intestinal mucosa or faeces) | 0.5 µg/mL | 8 µg/mL | 64 µg/mL | 0.06 µg/mL | 2 µg/mL | 0.5 µg/mL | 1 µg/mL | 32 µg/mL | 16 µg/mL |
| Limosilactobacillus fermentum IM690 (strain group: human intestinal mucosa or faeces) | 0.5 µg/mL | 16 µg/mL | 128 µg/mL | 0.06 µg/mL | 4 µg/mL | 0.5 µg/mL | 2 µg/mL | 64 µg/mL | 8 µg/mL |
| Limosilactobacillus fermentum IM691 (strain group: human intestinal mucosa or faeces) | 0.5 µg/mL | 16 µg/mL | 64 µg/mL | 0.06 µg/mL | 2 µg/mL | 0.5 µg/mL | 2 µg/mL | 32 µg/mL | 8 µg/mL |
| Limosilactobacillus fermentum IM710 (strain group: human milk or colostrum) | 0.5 µg/mL | 8 µg/mL | 128 µg/mL | 0.06 µg/mL | 2 µg/mL | 0.25 µg/mL | 2 µg/mL | 32 µg/mL | 4 µg/mL |
| Limosilactobacillus fermentum IM818 (strain group: human milk or colostrum) | 1 µg/mL | 8 µg/mL | 64 µg/mL | 0.06 µg/mL | 2 µg/mL | 0.5 µg/mL | 2 µg/mL | 32 µg/mL | 8 µg/mL |
| Limosilactobacillus fermentum IM846 (strain group: human milk or colostrum) | 1 µg/mL | 4 µg/mL | 64 µg/mL | 0.06 µg/mL | 4 µg/mL | 0.25 µg/mL | 2 µg/mL | 32 µg/mL | 8 µg/mL |
| Limosilactobacillus fermentum IM847 (strain group: human milk or colostrum) | 1 µg/mL | 4 µg/mL | 64 µg/mL | 0.06 µg/mL | 2 µg/mL | 0.25 µg/mL | 1 µg/mL | 16 µg/mL | 4 µg/mL |

Source: the supplement of paper PMC9542798
